# The list shows a part of the results. These are noisy estimates, calculated here from bound and input reads.
# Biological target: T1, Pho4 (S. cerevisiae) (UniProt P07270)
# T1 sequence: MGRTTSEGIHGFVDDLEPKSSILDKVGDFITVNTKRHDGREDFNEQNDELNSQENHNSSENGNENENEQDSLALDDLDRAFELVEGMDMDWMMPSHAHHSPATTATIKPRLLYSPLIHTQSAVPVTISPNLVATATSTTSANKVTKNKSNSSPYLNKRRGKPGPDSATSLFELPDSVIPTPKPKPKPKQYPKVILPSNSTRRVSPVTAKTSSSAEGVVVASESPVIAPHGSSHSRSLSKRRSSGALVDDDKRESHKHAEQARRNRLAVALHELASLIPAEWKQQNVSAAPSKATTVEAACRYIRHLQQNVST
# Assay: relative binding free energy (BET-seq); higher = weaker binding
# Conditions: reference: library average
row,Sequence,relative binding free energy
1,CAAGTCACGTGTTAGT,0.11 kcal/mol
2,TAATTCACGTGCTTAG,0.19 kcal/mol
3,AGGCGCACGTGGAAGG,-0.06 kcal/mol
4,GTTTTCACGTGTTTCC,0.27 kcal/mol
5,TATCGCACGTGTGTTT,-0.06 kcal/mol
6,CGGGGCACGTGCGCGG,-0.28 kcal/mol
7,TGTAACACGTGTAACT,0.1 kcal/mol
8,GTATTCACGTGTAACG,0.34 kcal/mol
9,TAGCTCACGTGTGGAG,0.44 kcal/mol
10,ATTTACACGTGAGATG,0.38 kcal/mol
11,TCATTCACGTGGTATA,0.19 kcal/mol
12,ACAGGCACGTGGGGTT,-0.23 kcal/mol
13,GGGTTCACGTGTCGTC,0.39 kcal/mol
14,AGTCTCACGTGTGAGG,0.22 kcal/mol
15,TATGTCACGTGATCTT,0.02 kcal/mol
16,GATATCACGTGGTATT,0.05 kcal/mol
17,AGTAACACGTGTAATT,0.05 kcal/mol
18,TTAATCACGTGAAATT,0.29 kcal/mol
19,ATTTTCACGTGGAAGA,0.32 kcal/mol
20,CCGGGCACGTGGGTGT,-0.22 kcal/mol
21,ATATTCACGTGTGACT,0.31 kcal/mol
22,AGGACCACGTGGGGGA,-0.32 kcal/mol
23,CGTGACACGTGGGGTG,-0.22 kcal/mol
24,TATATCACGTGGGGTC,-0.05 kcal/mol
25,ATCGGCACGTGTGGAG,0.15 kcal/mol
26,GGATTCACGTGTTTCA,0.43 kcal/mol

row,Sequence,relative binding free energy
1,ATTCTCACGTGAGGGT,0.3 kcal/mol
2,TAGAACACGTGTCGGG,0.09 kcal/mol
3,GGGGGCACGTGAGCAA,0.09 kcal/mol
4,GGGGGCACGTGGGATG,-0.14 kcal/mol
5,CTAGGCACGTGTGGTG,-0.09 kcal/mol
6,CTTTTCACGTGGTCAT,0.12 kcal/mol
7,TAAGTCACGTGAGGCC,0.33 kcal/mol
8,GGTGCCACGTGAGGGA,0.06 kcal/mol
9,CATGGCACGTGGAATT,0.08 kcal/mol
10,GAGTGCACGTGTTAGG,-0.01 kcal/mol
11,GGCGTCACGTGATGTA,0.21 kcal/mol
12,CTGGGCACGTGACGGT,0 kcal/mol
13,ACCTGCACGTGGGTTG,-0.11 kcal/mol
14,ATTGCCACGTGAGGTA,0.08 kcal/mol
15,GGTTACACGTGGCTTT,0.07 kcal/mol
16,GCGCGCACGTGATTGG,0.15 kcal/mol
17,GTCCTCACGTGGGATG,0.22 kcal/mol
18,GTGGCCACGTGGGGAT,-0.12 kcal/mol
19,CCTTGCACGTGGTGGT,-0.09 kcal/mol
20,AGTAGCACGTGGTTTT,-0.08 kcal/mol
21,GGGGCCACGTGGATTT,0.08 kcal/mol
22,TGCGACACGTGGGTAA,-0.11 kcal/mol
23,ATACGCACGTGTGTTT,-0.11 kcal/mol
24,GGAAGCACGTGGCGAG,-0.09 kcal/mol
25,GTACGCACGTGTAGGA,-0.03 kcal/mol
26,GGTGTCACGTGCGGAA,0.01 kcal/mol

row,Sequence,relative binding free energy
1,TTCAACACGTGTAGTA,0.14 kcal/mol
2,GGGTCCACGTGAAGGT,0.38 kcal/mol
3,TCTGTCACGTGTATTT,0.07 kcal/mol
4,GGGCGCACGTGAAGAG,0.21 kcal/mol
5,GCGTGCACGTGTGGAG,0.03 kcal/mol
6,TTAGTCACGTGAGTGT,0.37 kcal/mol
7,AGATGCACGTGGAGTT,-0.07 kcal/mol
8,AGGGTCACGTGGAAAG,0.17 kcal/mol
9,GGTAGCACGTGAAGTT,0.24 kcal/mol
10,GTGTACACGTGTGTGG,0.06 kcal/mol
11,ATAAACACGTGTATGT,-0.14 kcal/mol
12,GTAGACACGTGAGGTT,0.19 kcal/mol
13,GACATCACGTGTTGTT,0.15 kcal/mol
14,AGGTTCACGTGGCCTG,0.07 kcal/mol
15,ATAGTCACGTGTCTTT,0.21 kcal/mol
16,GTTTGCACGTGAGCTG,0.18 kcal/mol
17,AATAGCACGTGAATAG,0.32 kcal/mol
18,ATGTCCACGTGGGCGT,-0.12 kcal/mol
19,TCTATCACGTGTTTTA,0.15 kcal/mol
20,AGCTTCACGTGGGGTT,-0.04 kcal/mol
21,GGCAGCACGTGGGTTT,-0.16 kcal/mol
22,TGCTGCACGTGATGGC,0.08 kcal/mol
23,TGAAGCACGTGGGTAT,-0.25 kcal/mol
24,AAGTTCACGTGTTGGC,0.22 kcal/mol
25,TTTCTCACGTGATGGT,0.26 kcal/mol
26,ATGGACACGTGGTGTC,-0.01 kcal/mol

row,Sequence,relative binding free energy
1,GAGTTCACGTGTGACG,0.45 kcal/mol
2,TGGATCACGTGGGTAG,0.1 kcal/mol
3,GGTAGCACGTGGATCT,0.01 kcal/mol
4,TTGCGCACGTGAATTT,0.31 kcal/mol
5,ATGGACACGTGGGCGA,-0.04 kcal/mol
6,GTGTACACGTGGTACG,0.05 kcal/mol
7,TCAATCACGTGGTGTT,0.17 kcal/mol
8,ACTGTCACGTGGAGTT,0.15 kcal/mol
9,ATGCACACGTGGTGGT,-0.01 kcal/mol
10,GTTCGCACGTGTGGTA,0.08 kcal/mol
11,TGGAGCACGTGGTCTT,-0.15 kcal/mol
12,TTGGGCACGTGTTCCG,-0.06 kcal/mol
13,TGTATCACGTGTACGG,0.11 kcal/mol
14,TCTGTCACGTGCAGGT,0.12 kcal/mol
15,TTTATCACGTGTGCTT,0.24 kcal/mol
16,GGAGACACGTGGGCGA,-0.03 kcal/mol
17,GGCTGCACGTGTCTTG,-0.01 kcal/mol
18,TTAGACACGTGGGTAG,-0.01 kcal/mol
19,CTTTTCACGTGACAGG,0.52 kcal/mol
20,TTGGTCACGTGTGGTG,0.08 kcal/mol
21,TTTGGCACGTGTGGAG,-0.03 kcal/mol
22,AATTGCACGTGTAGGC,0.03 kcal/mol
23,GTGGTCACGTGTTTGA,0.15 kcal/mol
24,CTTTTCACGTGGATTG,0.22 kcal/mol
25,AAGCGCACGTGATGGG,-0.06 kcal/mol
26,CTGTGCACGTGGTAGC,-0.11 kcal/mol

row,Sequence,relative binding free energy
1,TGACGCACGTGGTTTG,-0.3 kcal/mol
2,GGTCTCACGTGGAGGA,0.14 kcal/mol
3,TCAAGCACGTGTGGTA,-0.13 kcal/mol
4,TATATCACGTGAGGCT,0.23 kcal/mol
5,AGGAGCACGTGTGGAT,-0.1 kcal/mol
6,TTGTGCACGTGGTTAA,-0.13 kcal/mol
7,CATAGCACGTGATGTG,-0.03 kcal/mol
8,AAGTACACGTGGAGTA,0.13 kcal/mol
9,TATGTCACGTGTTATA,0.19 kcal/mol
10,GCTTGCACGTGGAGGC,0.14 kcal/mol
11,ATACTCACGTGTTTGG,0.16 kcal/mol
12,AGGTTCACGTGTGCTA,0.16 kcal/mol
13,TTTGGCACGTGTCCGA,-0.11 kcal/mol
14,CGTATCACGTGTGAGG,0.2 kcal/mol
15,TAGGACACGTGTAAGG,0.21 kcal/mol
16,AGTGGCACGTGAGAAT,0.12 kcal/mol
17,AGTGGCACGTGGGGTA,-0.3 kcal/mol
18,TTGGACACGTGGCACG,-0.01 kcal/mol
19,AAACGCACGTGTTGGG,-0.19 kcal/mol
20,AAATTCACGTGGTCAG,0.26 kcal/mol
21,AAAGTCACGTGGAGGT,0.21 kcal/mol
22,CAATGCACGTGGAGAG,0.18 kcal/mol
23,TGGGTCACGTGTCGCA,-0.01 kcal/mol
24,TGTCCCACGTGTTTGT,-0.04 kcal/mol
25,TTTTGCACGTGGATGA,0 kcal/mol
26,TCTAGCACGTGAAGGT,0.13 kcal/mol

row,Sequence,relative binding free energy
1,GAGCGCACGTGTGTGT,-0.1 kcal/mol
2,AAGTTCACGTGTTAAG,0.24 kcal/mol
3,TATTACACGTGGCGAT,0.17 kcal/mol
4,TGCATCACGTGTTTGT,0.07 kcal/mol
5,TGGCGCACGTGTGATT,-0.01 kcal/mol
6,GGTTTCACGTGTCGAG,0.29 kcal/mol
7,TGAGACACGTGAGAGT,0.09 kcal/mol
8,TCATGCACGTGGGATA,-0.07 kcal/mol
9,GGTTTCACGTGCGAGG,0.34 kcal/mol
10,TGGTTCACGTGGGCAT,0.13 kcal/mol
11,GGCTACACGTGTGGTA,0.04 kcal/mol
12,TTCATCACGTGAGGAT,0.44 kcal/mol
13,TTGGCCACGTGGATTT,0.06 kcal/mol
14,ATATACACGTGGAGTG,-0.06 kcal/mol
15,TAGCGCACGTGTGGGG,-0.11 kcal/mol
16,GATGGCACGTGATTGT,0.2 kcal/mol
17,ATAGACACGTGGTATT,-0.12 kcal/mol
18,GGTGTCACGTGAATCT,0.37 kcal/mol
19,GGTAGCACGTGTTTCG,0 kcal/mol
20,CTAGTCACGTGAGGCG,0.43 kcal/mol
21,GGTGTCACGTGTTATG,0.19 kcal/mol
22,TGTAGCACGTGGCGGT,-0.12 kcal/mol
23,GGATTCACGTGATTTG,0.58 kcal/mol
24,ATAGTCACGTGTATTT,0.19 kcal/mol
25,TGGTTCACGTGGATTA,0.27 kcal/mol
26,AGGTTCACGTGCGAAG,0.18 kcal/mol

row,Sequence,relative binding free energy
1,GGGGACACGTGAAGCG,0.3 kcal/mol
2,GGGCTCACGTGTTGGT,0.37 kcal/mol
3,TATGTCACGTGTATCG,0.04 kcal/mol
4,ATAGTCACGTGTACGG,0.1 kcal/mol
5,AGTTACACGTGAGGAT,0.31 kcal/mol
6,TTGCTCACGTGGAGTA,0.3 kcal/mol
7,GGGGTCACGTGCGATG,0.2 kcal/mol
8,GGTAGCACGTGTAGCA,-0.02 kcal/mol
9,ATCGGCACGTGAATGG,0.1 kcal/mol
10,CGGGACACGTGGGCGA,-0.12 kcal/mol
11,TACGGCACGTGAGATG,0.26 kcal/mol
12,CGTAGCACGTGAATGG,0.15 kcal/mol
13,TTATGCACGTGCTGAA,-0.13 kcal/mol
14,GCAAGCACGTGTCGGG,0.05 kcal/mol
15,TCATGCACGTGTAGTT,0.04 kcal/mol
16,TTTTTCACGTGGGTCA,0.23 kcal/mol
17,GTGTCCACGTGGTATT,-0.06 kcal/mol
18,GAAGGCACGTGTTCGG,-0.05 kcal/mol
19,AGGTGCACGTGCTGGC,0.11 kcal/mol
20,GTGTGCACGTGGAGGG,0.01 kcal/mol
21,AGTGACACGTGCGTTG,0.04 kcal/mol
22,TGCTGCACGTGTGAGC,0.18 kcal/mol
23,ATTGTCACGTGGGGTA,-0.12 kcal/mol
24,TGATGCACGTGCTTGA,-0.1 kcal/mol
25,ACTTTCACGTGTAATT,0.32 kcal/mol
26,AGTAACACGTGCGGGC,0.06 kcal/mol

row,Sequence,relative binding free energy
1,GGCGGCACGTGAGGAA,0.18 kcal/mol
2,GGTGGCACGTGGCTTA,-0.15 kcal/mol
3,ATTTGCACGTGTCGGT,0.07 kcal/mol
4,GACTGCACGTGAGGTG,0.26 kcal/mol
5,TTCGACACGTGGTGAT,0.04 kcal/mol
6,ATTTTCACGTGAATAG,0.41 kcal/mol
7,AGCATCACGTGGGAGG,0 kcal/mol
8,GTGATCACGTGAATGG,0.32 kcal/mol
9,TTACACACGTGGGGGT,-0.28 kcal/mol
10,GAGATCACGTGTCGTG,0.3 kcal/mol
11,TACGGCACGTGGAGCG,-0.11 kcal/mol
12,CCTGGCACGTGTTGGG,-0.05 kcal/mol
13,GGGATCACGTGATTAG,0.37 kcal/mol
14,TGCCGCACGTGGTATG,-0.21 kcal/mol
15,TGAGGCACGTGTGTTT,0.03 kcal/mol
16,ATCAGCACGTGCGGGT,-0.16 kcal/mol
17,GTGTTCACGTGTTGTC,0.32 kcal/mol
18,AGGATCACGTGTATGC,0.25 kcal/mol
19,AGTGTCACGTGCTGTA,-0.07 kcal/mol
20,ATCGTCACGTGGGTGG,0.05 kcal/mol
21,GGAGGCACGTGTTTTC,0.02 kcal/mol
22,TCGGTCACGTGTAGGG,0.11 kcal/mol
23,TTTTACACGTGCTTCG,0.17 kcal/mol
24,GTGTGCACGTGGTTGA,-0.04 kcal/mol
25,GGGAGCACGTGGGAAA,-0.15 kcal/mol
26,GGTATCACGTGCGGAG,0.19 kcal/mol

row,Sequence,relative binding free energy
1,GTAATCACGTGTGCAT,0.28 kcal/mol
2,AAAAACACGTGTGGGG,-0.07 kcal/mol
3,TCATGCACGTGTGATT,-0.03 kcal/mol
4,AAGCGCACGTGACGGG,0.12 kcal/mol
5,AGCATCACGTGTTATT,0.15 kcal/mol
6,GTATGCACGTGCGGTT,-0.02 kcal/mol
7,CGGGTCACGTGCAGTG,0.04 kcal/mol
8,GGTGGCACGTGATGTG,0.12 kcal/mol
9,TTCTACACGTGTAATT,0.22 kcal/mol
10,TCTTGCACGTGTACGT,0.11 kcal/mol
11,TTCAGCACGTGAAGGT,0.16 kcal/mol
12,GCGGGCACGTGTCGAG,0.01 kcal/mol
13,TTGGGCACGTGTCGGT,-0.1 kcal/mol
14,GGTTTCACGTGCGTAT,0.4 kcal/mol
15,GATGGCACGTGAGGGA,0.21 kcal/mol
16,GAAGGCACGTGATGGC,0.04 kcal/mol
17,GGTTGCACGTGTGGGC,0.15 kcal/mol
18,ATTTACACGTGTGAGG,0.13 kcal/mol
19,TTTGCCACGTGACGGG,-0.09 kcal/mol
20,AATATCACGTGTTATA,0.08 kcal/mol
21,GTAGGCACGTGCTGTT,-0.16 kcal/mol
22,AGTTTCACGTGGGATG,0.11 kcal/mol

# — the BET-seq Pho4 binding data (Le et al. 2018)
